In PubChem BioAssay (NCI):
“And” between values parts separate entries of the source, which are not always exact repeats. Identical values can stand only once.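 96-well plates; 48 h exposure; 5 concentrations. Endpoints by linear interpolation between flanking doses. Not reached: highest tested concentration assigned. GI50 is the concentration that inhibits growth by half. TGI denotes the concentration required for complete inhibition of growth.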

System: NCI-H322M lung
Experiment: inhibition of tumour cell growth, NCI panel, 48 h

**Q.** How did the GI50 turn out when `C=C(C=O)[C@@H]1CC[C@]2(C(=O)O)CC[C@]3(C)C(CC[C@@H]4[C@@](C)(CCC#N)[C@H](C(=C)C=O)CC[C@]43C)[C@@H]12` (stereo partly drawn) was run?
**A.** Its GI50 is 11.2 µM.

**Q.** What about the TGI of the same molecule?
**A.** Its TGI is 24.9 µM.

**Q.** How did the GI50 turn out when `CC(=O)O[C@@H]1C(=O)N(c2cnccn2)[C@H]1c1ccccc1[N+](=O)[O-]` was run?
**A.** The GI50 was 0.658 µM.

**Q.** What about the TGI of the same molecule?
**A.** Its TGI is greater than 100 µM.

**Q.** `O=C(NNc1nc2cc(F)cc(F)c2n2cccc12)c1cccnn1` was tested. Which GI50 did it give?
**A.** The GI50 was 0.244 µM and 0.183 µM.

**Q.** And the TGI?
**A.** The TGI was 30 µM and 35.4 µM.

**Q.** Which results are given for `O=C(Nc1cccc(Cl)c1)Nc1nc2ccc([N+](=O)[O-])cc2o1`?
**A.** GI50: 3.42 µM; TGI: > 100 µM
